PubChem BioAssay AID686978 (National Center for Advancing Translational Sciences (NCATS), 2013)
In all, about 420,000 compounds went through this assay and about 64,000 (15%) were called active. The inconclusive results got no clear call from the source; some entries with a clear call stand among them for comparison. Calls come from the whole dose curve; as a rule, active = well fitted inhibition curve with a large enough effect; inconclusive = small, poorly fitted or top-dose-only effect; inactive = flat fitted curve, though single readings scatter. No potency is given beside an inconclusive call; the fits are too rough.

Assay: qHTS for Inhibitors of human tyrosyl-DNA phosphodiesterase 1 (TDP1): qHTS in cells in absence of CPT; note: nearly all actives have a fitted effect of over 55% in size
Conditions: DT40 Tdp1-/- hTDP1 cells, no CPT, ATP luminescence, 48 h; activity change, negative = growth inhibition: at 46.2 µM (top of the series) unless noted
In short: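 Readout: luminescence from CellTiter-Glo after 30 min in the dark at RT. Cells: DT40 Tdp1-/- with stable hTDP1, 400/well. Exposure: compounds alone, ≥48 hr, 37 °C.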
% is set by controls: 0 for no effect and ±100 for the full control effect; potency is the fitted concentration of half-maximal effect; tags give direction and shape of the fitted curve.

| SMILES | Potency | activity change, negative = growth inhibition |
| --- | --- | --- |
| Cc1ccc(C)c(C2(O)CC(C)N(C)CC2C)c1 (centres undefined) | inconclusive [inhibitor, full curve] |  |
| C#CCOc1ccc2c(c1)c(C(C)=O)c(C)n2Cc1ccccc1 | inconclusive [inhibitor, single point] |  |
| C/C(=N\N(C)c1ccccc1)c1c(O)[nH]c(=O)[nH]c1=O | inactive |  |
| CC[C@H](C)[C@H]1O[C@]2(C=C[C@@H]1C)C[C@@H]1C[C@@H](C/C=C(\C)[C@@H](O[C@H]3C[C@H](OC)[C@@H](O[C@H]4C[C@H](OC)[C@@H](O)[C@H](C)O4)[C@H](C)O3)[C@@H](C)/C=C/C=C3\CO[C@@H]4[C@H](O)C(C)=C[C@@H](C(=O)O1)[C@]34O)O2 | active: 16.4 µM |  |
| CC1=C(O)C(=O)C=C2C1=CC=C1[C@]2(C)CC[C@@]2(C)C3C[C@](C)(C(=O)O)CC[C@@]3(C)CC[C@@]12C (some centres undefined) | active: 0.82 µM |  |
| C[C@]12CC[C@@H](O)CC1=CCC1C2CC[C@]2(C)C(=O)[C@H](F)CC12 (some centres undefined) | inactive |  |
| COCCCn1c(N)c(C(=O)NCc2ccco2)c2nc3ccccc3nc21 | inconclusive [inhibitor, single point] |  |
| CCOC(=O)c1oc2ccc(S(=O)(=O)n3nc(-c4ccc(Cl)cc4)cc3N)cc2c1C | active: 11.6 µM |  |
| CC1CN=C(Nc2ccc(N(C)C)cc2)S1 (centres undefined) | inconclusive [inhibitor, single point] |  |
| COc1ccc(NC(=O)c2ccccc2SCc2ccccc2)cc1 | active: 4.61 µM |  |
| OCC1OC(n2cnc3c(Cl)ncnc32)C(O)C1O (centres undefined) | active: 4.61 µM |  |
| CC(C)CCON=O | inactive |  |
| COc1ccc(NC(=O)CCc2nc(C3=CCN(Cc4cccc(Cl)c4)CC3)no2)c(OC)c1 | active: 18.4 µM |  |
| COc1cc(/C=C/c2nc3ccccc3c(=O)n2-c2ccccc2O)ccc1O | inconclusive [inhibitor, single point] |  |
| O=C1NC(=O)C(=Cc2cn(CCOc3ccc4c(c3)OCO4)c3ccccc23)C(=O)N1 | active: 20.6 µM |  |
| C/C(=C\c1ccc(N(C)C)cc1)[N+](=O)[O-] | active: 4.11 µM |  |
| O=S1(=O)N(Cc2ccccc2Cl)CCCN1Cc1ccccc1Cl | inconclusive [inhibitor, single point] |  |
| Cc1cccc(OP(=O)(Oc2cccc(C)c2)OC(c2ccccc2)C(F)(F)F)c1 (centres undefined) | active: 16.4 µM |  |
| Cc1ccc(N(C)C(=O)Oc2cccc3ccc(C)nc23)cc1 | inconclusive [inhibitor, single point] |  |
| Oc1ccc2c3c1O[C@H]1c4c(c5ccccc5n4Cc4ccccc4)C[C@]4(O)[C@H](C2)N(CC2CC2)CC[C@@]314 | active: 13.3 µM |  |
| COc1cccc(C(=O)c2c(N)c(-c3nc(-c4ccccc4)cs3)c3ccccn23)c1 | active: 20.6 µM |  |
| CC(OC(=O)c1cn(C)c2ccccc12)C(=O)N(C)c1ccccc1 (centres undefined) | inconclusive [inhibitor, single point] |  |

| SMILES | Potency | activity change, negative = growth inhibition |
| --- | --- | --- |
| ClCCN(CCCl)c1ccc(C2=NCCc3ccccc32)cc1 | inconclusive [inhibitor, single point] |  |
| C=CCn1c(O)c(/C(C)=N/NC(=S)Nc2ccccc2)c(=O)[nH]c1=O | inconclusive [inhibitor, single point] |  |
| O=C(c1ccco1)C12CN3CN(CN(C3)C1)C2 | inactive |  |
| COc1ccccc1CN1CCN(Cc2ccc(Cl)cc2)CC1 | active: 20.6 µM |  |
| O=c1c2ccc(Cl)cc2[nH]c(=S)n1-c1cccnc1 | inactive |  |
| CN(C)CC#CCC(O)(c1ccccc1)C1CCCC1 (centres undefined) |  | inconclusive: -33.4% [inhibitor] |
| Cn1c(=O)c2c(nc(SCc3ccccc3)n2Cc2ccc(Cl)cc2)n(C)c1=O | inconclusive [inhibitor, single point] |  |
| Cc1cccc(OCC(=O)Nc2cc(-c3ccccc3F)nn2-c2ccccc2)c1 | inconclusive [inhibitor, partial curve] |  |
| CCOc1ccccc1NC(=O)NCc1ccc2c(c1)CCN2C(=O)c1ccccc1 | active: 16.4 µM |  |
| COc1ccc(N=Cc2c(O)n(-c3ccc(C)cc3)c(=O)[nH]c2=O)cc1 | inactive |  |
| CN1C(=O)C2C[C@@]3(Br)c4ccccc4N(OOSc4ccccc4)[C@H]3N2C(=O)[C@@H]1Cc1ccccc1 (some centres undefined) | inconclusive [inhibitor, single point] |  |
| CCOc1ccc(-c2cc(C(=O)N3CCC4(CC3)OCCO4)c3ccccc3n2)cc1 | inconclusive [inhibitor, single point] |  |
| O=c1c2ccccc2nc(-c2ccccc2)n1-c1ccccc1 | active: 8.2 µM |  |
| N#CCCn1cc(C(=O)Nc2ccc(F)cc2)c(-c2ccc([N+](=O)[O-])cc2)n1 | inconclusive [inhibitor, single point] |  |
| COc1ccc2sc(-c3ccccc3OC)c(-c3ccc(OCCN4CCOCC4)cc3)c2c1 | inconclusive [inhibitor, single point] |  |
| Cc1cccc(-c2nn3c(=O)cc(CN4CCN(C(=O)COc5ccc(Cl)cc5)CC4)nc3s2)c1 |  | inconclusive: -37.4% [inhibitor] |
| Oc1ccc2c3c1OC1c4oc5ccccc5c4C[C@@]4(O)[C@@H](C2)N(CC2CC2)CC[C@]314 (some centres undefined) | inconclusive [inhibitor, single point] |  |
| O=c1c2ccccc2nc(/C=C/c2ccccc2F)n1-c1cccc(O)c1 | inconclusive [inhibitor, partial curve] |  |
| CCc1nc(SC)ncc1C(=O)Nc1ccc(Cl)cc1C(=O)c1ccccc1 | inconclusive [inhibitor, single point] |  |
| Oc1ccc2c3c1O[C@H]1c4c(c5ccccc5n4Cc4ccccc4)C[C@@]4(O)C(C2)N(CC2CC2)CC[C@]314 | active: 3.66 µM |  |
| CN1C[C@H](CO)C=C2c3cccc4[nH]cc(c34)C[C@H]21 | inconclusive [inhibitor, single point] |  |
| COC1=CC(=O)OC(/C=C/c2ccccc2)C1 (centres undefined) | inactive |  |
